Data reported in publication PMC2253824.
Positions count from the first letter of the chain named. Results are given in words; binding and its absence hold for the method and conditions named. For some assays here: Binding seen in cells or lysates may run through a third protein. Some binding calls cover weakened binding; strength is not graded here. For some assays here: Tags and fused reporters may be left off the sequences shown.

Amino acid sequences for entries named in this document (tags omitted).
UniProt P09884: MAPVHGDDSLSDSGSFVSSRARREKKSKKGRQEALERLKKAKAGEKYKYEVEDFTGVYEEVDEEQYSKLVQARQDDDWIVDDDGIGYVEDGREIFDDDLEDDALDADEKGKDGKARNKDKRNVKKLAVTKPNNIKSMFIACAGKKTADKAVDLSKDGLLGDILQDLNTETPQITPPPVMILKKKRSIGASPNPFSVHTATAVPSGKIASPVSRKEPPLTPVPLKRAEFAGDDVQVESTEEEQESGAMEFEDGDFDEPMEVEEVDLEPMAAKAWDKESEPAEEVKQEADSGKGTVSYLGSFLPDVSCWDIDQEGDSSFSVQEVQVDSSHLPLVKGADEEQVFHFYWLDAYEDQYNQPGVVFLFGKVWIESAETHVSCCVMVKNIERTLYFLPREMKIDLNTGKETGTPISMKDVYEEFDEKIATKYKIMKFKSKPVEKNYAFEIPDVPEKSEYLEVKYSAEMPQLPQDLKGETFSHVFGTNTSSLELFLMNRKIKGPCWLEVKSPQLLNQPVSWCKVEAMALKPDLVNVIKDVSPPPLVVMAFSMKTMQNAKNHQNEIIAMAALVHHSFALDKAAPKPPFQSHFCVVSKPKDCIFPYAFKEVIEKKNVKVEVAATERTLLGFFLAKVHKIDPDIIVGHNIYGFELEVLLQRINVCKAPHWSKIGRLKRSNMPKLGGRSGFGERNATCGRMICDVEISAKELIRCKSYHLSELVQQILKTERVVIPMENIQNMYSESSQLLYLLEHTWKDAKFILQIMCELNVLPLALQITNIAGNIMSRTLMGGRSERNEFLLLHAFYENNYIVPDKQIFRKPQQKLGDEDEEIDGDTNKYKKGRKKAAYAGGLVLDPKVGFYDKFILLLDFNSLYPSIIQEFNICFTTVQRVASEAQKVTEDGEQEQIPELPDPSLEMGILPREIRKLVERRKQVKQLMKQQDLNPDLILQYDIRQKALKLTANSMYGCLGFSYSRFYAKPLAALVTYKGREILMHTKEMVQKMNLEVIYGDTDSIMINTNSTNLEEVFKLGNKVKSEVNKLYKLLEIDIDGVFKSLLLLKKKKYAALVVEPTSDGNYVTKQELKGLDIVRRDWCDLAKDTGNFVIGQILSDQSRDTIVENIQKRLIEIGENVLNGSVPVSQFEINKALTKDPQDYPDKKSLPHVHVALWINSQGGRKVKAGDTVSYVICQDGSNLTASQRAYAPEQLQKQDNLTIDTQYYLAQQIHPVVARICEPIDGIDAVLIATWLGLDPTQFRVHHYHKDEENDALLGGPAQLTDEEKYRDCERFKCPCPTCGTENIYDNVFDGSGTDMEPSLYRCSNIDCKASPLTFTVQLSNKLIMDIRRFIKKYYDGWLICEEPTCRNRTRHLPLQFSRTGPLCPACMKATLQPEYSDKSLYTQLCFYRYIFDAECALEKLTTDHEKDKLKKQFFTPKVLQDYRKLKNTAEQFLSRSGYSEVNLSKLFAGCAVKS
UniProt P11142: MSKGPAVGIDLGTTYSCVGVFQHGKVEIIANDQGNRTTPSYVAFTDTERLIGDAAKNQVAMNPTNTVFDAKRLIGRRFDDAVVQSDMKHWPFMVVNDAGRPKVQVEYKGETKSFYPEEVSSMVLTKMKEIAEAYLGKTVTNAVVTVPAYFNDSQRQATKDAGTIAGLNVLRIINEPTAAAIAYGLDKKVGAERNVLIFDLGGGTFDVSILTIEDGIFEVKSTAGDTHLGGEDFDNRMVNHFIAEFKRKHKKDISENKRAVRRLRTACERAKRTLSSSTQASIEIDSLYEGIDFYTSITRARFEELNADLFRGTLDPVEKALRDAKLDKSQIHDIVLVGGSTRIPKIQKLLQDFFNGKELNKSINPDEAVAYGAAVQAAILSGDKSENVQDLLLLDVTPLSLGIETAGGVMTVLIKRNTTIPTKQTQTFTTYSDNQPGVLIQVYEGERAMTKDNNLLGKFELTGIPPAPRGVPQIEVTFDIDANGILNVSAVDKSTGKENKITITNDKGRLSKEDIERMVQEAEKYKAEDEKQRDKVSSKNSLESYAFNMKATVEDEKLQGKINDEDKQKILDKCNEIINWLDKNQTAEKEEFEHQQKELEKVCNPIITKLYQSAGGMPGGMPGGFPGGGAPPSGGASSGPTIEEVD
UniProt P08238: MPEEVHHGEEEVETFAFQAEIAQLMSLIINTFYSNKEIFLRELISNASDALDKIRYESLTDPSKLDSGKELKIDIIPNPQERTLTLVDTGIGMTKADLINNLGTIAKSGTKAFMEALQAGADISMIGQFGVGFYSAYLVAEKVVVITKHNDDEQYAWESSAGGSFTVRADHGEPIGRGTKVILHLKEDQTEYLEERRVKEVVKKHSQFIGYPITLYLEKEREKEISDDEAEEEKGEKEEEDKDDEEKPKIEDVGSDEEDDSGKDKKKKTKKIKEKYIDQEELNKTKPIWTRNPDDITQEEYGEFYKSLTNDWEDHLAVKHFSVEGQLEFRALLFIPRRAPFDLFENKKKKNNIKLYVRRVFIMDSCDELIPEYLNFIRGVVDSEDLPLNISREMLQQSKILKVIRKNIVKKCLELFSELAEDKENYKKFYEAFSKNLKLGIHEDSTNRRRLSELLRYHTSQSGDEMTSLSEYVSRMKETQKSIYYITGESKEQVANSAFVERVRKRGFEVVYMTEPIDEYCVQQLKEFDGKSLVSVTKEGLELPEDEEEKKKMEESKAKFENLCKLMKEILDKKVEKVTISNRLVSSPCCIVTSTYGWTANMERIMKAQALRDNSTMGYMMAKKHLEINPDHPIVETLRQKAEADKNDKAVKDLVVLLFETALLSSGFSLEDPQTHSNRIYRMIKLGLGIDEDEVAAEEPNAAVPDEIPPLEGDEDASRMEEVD

Legend:
[1] = target: T1, human CDC6, two-hybrid fusion in pEG202 (human) (UniProt Q99741); assay: two-hybrid; pairs of bait (pEG202) and activation (pJG4.5) vectors co-transfected into S. cerevisiae; growth on selective and non-selective media after 1 or 2 days
T1 sequence: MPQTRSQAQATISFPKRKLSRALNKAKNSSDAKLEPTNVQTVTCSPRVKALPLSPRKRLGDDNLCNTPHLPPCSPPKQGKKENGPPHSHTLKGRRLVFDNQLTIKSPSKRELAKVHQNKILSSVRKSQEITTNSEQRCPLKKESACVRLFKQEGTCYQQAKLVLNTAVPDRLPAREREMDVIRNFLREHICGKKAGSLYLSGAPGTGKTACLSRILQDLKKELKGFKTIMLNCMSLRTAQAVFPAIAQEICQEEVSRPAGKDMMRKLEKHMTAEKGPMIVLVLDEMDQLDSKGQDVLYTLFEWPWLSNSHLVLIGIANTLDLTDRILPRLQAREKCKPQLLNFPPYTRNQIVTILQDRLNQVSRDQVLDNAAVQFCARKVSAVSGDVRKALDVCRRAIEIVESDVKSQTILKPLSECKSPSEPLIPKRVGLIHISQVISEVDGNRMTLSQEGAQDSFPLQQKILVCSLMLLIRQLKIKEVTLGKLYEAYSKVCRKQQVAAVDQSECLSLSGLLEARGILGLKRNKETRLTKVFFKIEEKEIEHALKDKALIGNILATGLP

[2] = target: human DNA polymerase alpha large subunit, two-hybrid fusion (human) (UniProt P09884); assay: as above
[3] = target: human HSP70 protein 8 (HSPA8), two-hybrid fusion in pEG202 (human) (UniProt P11142); assay: as above
[4] = target: human HSP90 protein 1 beta (HSPCB), two-hybrid fusion in pEG202 (human) (UniProt P08238); assay: as above
[5] = target: human DNA polymerase alpha large subunit, two-hybrid fusion (human) (UniProt P09884); assay: condition: <5 (percentage of the cdc6/TTC4 interaction); two-hybrid; quantitative liquid beta-galactosidase assays; values as a percentage of the cdc6/TTC4 interaction
[6] = target: T2, TTC4, endogenous in Hela cells (human (endogenous in Hela)) (UniProt O95801); assay: co-IP; anti-TTC4 serum coupled to protein A sepharose, Hela cell extract (PBS, 1% triton X100); pellet blotted for HSP90, HSP70, CDC6; pre immune serum as control
T2 sequence: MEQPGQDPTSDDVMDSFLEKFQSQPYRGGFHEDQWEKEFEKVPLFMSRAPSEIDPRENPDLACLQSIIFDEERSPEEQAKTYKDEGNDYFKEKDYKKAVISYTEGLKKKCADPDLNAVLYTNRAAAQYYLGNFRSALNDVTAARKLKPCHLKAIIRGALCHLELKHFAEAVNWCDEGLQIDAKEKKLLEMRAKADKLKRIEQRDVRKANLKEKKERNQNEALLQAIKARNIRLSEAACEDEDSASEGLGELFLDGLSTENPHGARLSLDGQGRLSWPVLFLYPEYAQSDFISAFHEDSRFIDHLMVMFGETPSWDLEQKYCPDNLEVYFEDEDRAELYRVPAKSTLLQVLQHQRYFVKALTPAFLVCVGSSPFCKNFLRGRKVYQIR

[7] = target: T1, human CDC6, two-hybrid fusion in pEG202 (human); assay: condition: <5 (percentage of the cdc6/TTC4 interaction); two-hybrid; quantitative liquid beta-galactosidase assays; values as a percentage of the cdc6/TTC4 interaction

B1: human TTC4, two-hybrid fusion in pJG4.5 (protein, UniProt O95801 1-387)
chain: T2 sequence
With B1 the binding [1] was “binds”, the binding [2] was “no binding” and the binding [3] was “binds”. For the same binder, the binding [4] was “binds” and the binding [5] was “no binding”.

B2: CDC6, endogenous in Hela cells (protein, UniProt Q99741 1-560)
chain: T1 sequence
With B2 the binding [6] was “binds”.

B3: TTC4-230AC (77EA), two-hybrid fusion in pJG4.5 (protein, UniProt O95801 1-387)
chain: T2 sequence with E77A
With B3 the binding [7] was “no binding”.

B4: TTC4-651-TA (217NK), two-hybrid fusion in pJG4.5 (protein, UniProt O95801 1-387)
chain: T2 sequence with N217K
B4 was tested, and the binding [7] was “no binding”.
